# Among all 230,000 compounds or so, fewer than 10 were called active. Inconclusive results, whose numbers are uncertain, are shown with a selection of clear calls. Calls come from the whole dose curve; as a rule, active = well fitted curve in the direction sought with a large enough effect; inconclusive = small, poorly fitted or top-dose-only effect, or effect the other way, or another doubt; inactive = no such curve, though single readings can be large or run the other way. No potency is given beside an inconclusive call; the fits are too rough.
# Target: Runt-related transcription factor 1 (Homo sapiens) + Core-binding factor subunit beta (Homo sapiens) (UniProt Q01196+Q13951)
# Sequence of UniProt Q01196 (Q01196 whole entry, looked up): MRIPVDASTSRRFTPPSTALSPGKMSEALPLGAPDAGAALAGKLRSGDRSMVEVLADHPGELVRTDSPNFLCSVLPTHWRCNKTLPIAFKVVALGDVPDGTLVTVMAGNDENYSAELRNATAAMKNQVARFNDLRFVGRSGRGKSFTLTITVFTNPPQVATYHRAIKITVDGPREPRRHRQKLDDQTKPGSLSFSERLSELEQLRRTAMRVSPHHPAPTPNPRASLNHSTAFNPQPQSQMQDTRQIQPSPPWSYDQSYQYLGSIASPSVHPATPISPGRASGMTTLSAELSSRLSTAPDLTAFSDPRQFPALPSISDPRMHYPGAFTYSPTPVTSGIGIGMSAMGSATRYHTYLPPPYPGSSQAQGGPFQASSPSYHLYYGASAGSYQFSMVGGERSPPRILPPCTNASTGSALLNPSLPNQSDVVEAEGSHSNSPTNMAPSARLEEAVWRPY
# Sequence of UniProt Q01196 (Q13951 whole entry, looked up): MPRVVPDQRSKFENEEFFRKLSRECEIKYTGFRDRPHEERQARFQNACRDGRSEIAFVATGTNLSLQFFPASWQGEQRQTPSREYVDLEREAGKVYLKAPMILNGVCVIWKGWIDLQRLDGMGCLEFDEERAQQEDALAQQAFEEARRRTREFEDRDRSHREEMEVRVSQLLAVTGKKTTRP
# Assay: qHTS Assay for Compounds Blocking the Interaction Between CBF-beta and RUNX1 for the Treatment of Acute Myeloid Leukemia; for activity, negative = inhibition: % of control where 0% means no effect
# Settings: AlphaScreen CBFb-His/RUNX1-biotin binding, biochemical; activity, negative = inhibition: at 59.8 µM (top of the series) unless noted
# In short: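 CBFb-His/RUNX1-biotin, 30 nM each, preincubated 20 min RT; compound 15 min RT; Ni + streptavidin beads 50 ng each, 90 min RT; AlphaScreen read.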
SMILES,Potency,"activity, negative = inhibition"
O=C(/C=C/c1c(Cl)cccc1Cl)n1cccn1,inactive,
CCc1cc2c(nc1CC)CCN(CC/C(C)=N/O[C@@H](C)CN1CCCCc3nc(C)c(C)cc31)C2,,inactive: 5.21% [at 13.1 µM]
O=C(O)COc1ccccc1/C=N/Nc1ccc(S(=O)(=O)Nc2ccc(Cl)cc2)cc1[N+](=O)[O-],"inconclusive [inhibitor, partial curve]",
O=[N+]([O-])c1cc(C(F)(F)F)cc([N+](=O)[O-])c1NCCNC(=S)Nc1cccc(F)c1,"inconclusive [inhibitor, single point]",
Cc1cc(C(=O)OCC(=O)c2ccc(Cl)c([N+](=O)[O-])c2)c2cccc(C)c2n1,"inconclusive [inhibitor, single point]",
Cc1ccc(CN2CCN(/N=C\C=C\c3ccccc3)CC2)cc1,"inconclusive [inhibitor, single point]",
Cc1ccc(-c2nn3c(C)nnc3s2)cc1NC(=O)c1ccc(OC(C)C)cc1,inactive,
Cc1ccc(N2C(=O)C(Cl)=C(NCc3ccccc3)C2=O)c(C)c1,"inconclusive [activator, single point]",
CCCCC[C@H](O)CC[C@H]1[C@H](O)CC(=O)[C@@H]1CCCCCCC(=O)O,"inconclusive [activator, single point]",
CC1CC(OC(=O)c2ccccc2O)CC(C)(C)C1 (stereo not given),"inconclusive [inhibitor, single point]",
CCOC(=O)c1sc2cc([N+](=O)[O-])cc(SCCO)c2c1N,inactive,
CC(C)NCCCOc1ccc(Cl)cc1Br,inactive,
O=C(c1ccc2c(c1)OCO2)[C@@H]1[C@@H]2C(=O)N(C3CCCCC3)C(=O)[C@@H]2C2c3ccccc3C=CN21 (stereo not given in full),"inconclusive [inhibitor, single point]",
O=C(Nc1nc2cc3c(cc2s1)OCCO3)c1ccncc1,"inconclusive [inhibitor, partial curve]",
NC(=O)c1cc(Cc2ccccc2)sc1NC(=O)c1ccco1,inactive,
CC(C)CCOC(=O)c1c(N)n(CC2CCCO2)c2nc3ccccc3nc12 (stereo not given),"inconclusive [activator, partial curve]",
COC(=O)C1(C(F)(F)F)N=C(C(F)(F)F)Nc2ccc(Cl)cc21 (stereo not given),"inconclusive [activator, single point]",
COc1cc(/C=N/NC(=O)CSc2nc3ccccc3n2C)cc(OC)c1OC,inactive,
Cc1ccc(/C=C/C(=O)c2ccccc(=O)c2O)cc1C,"inconclusive [inhibitor, partial curve]",
COc1cccc2sc(Nc3nnc(-c4ccc(F)cc4)o3)nc12,"inconclusive [inhibitor, full curve]",
CCCCC/C=C/C=C1/C(=O)C=C[C@@H]1C/C=C\CCCC(=O)O,"inconclusive [inhibitor, partial curve]",
CC(=O)c1ccc(Oc2ncnc3sccc23)c(CN2CCOCC2)c1,inactive,
O=C(N/N=C/c1cn(-c2ccccc2)nc1-c1ccc2c(c1)OCCO2)c1ccncc1,"inconclusive [activator, single point]",

SMILES,Potency,"activity, negative = inhibition"
Cc1ccc(-c2nc3ccccn3c2NCc2ccc3c(c2)OCO3)cc1,"inconclusive [inhibitor, single point]",
N[C@@H](CS(=O)O)C(=O)O,"inconclusive [activator, full curve, poor fit]",
O=C(NCC1CCCO1)C(c1ccccn1)N(Cc1ccccc1Cl)C(=O)CN1C(=O)c2ccccc2S1(=O)=O (stereo not given),inactive,
COc1ccccc1CSc1ncc(-c2ccc([N+](=O)[O-])cc2)[nH]1,"inconclusive [inhibitor, single point]",
CCn1c(SCC(=O)Nc2ccccc2C)nc2nc3c(cc2c1=O)COC(C)(C)C3,inactive,
CCOC(=O)c1ccoc1CSCc1ccc(C(=O)OC)o1,inactive,
CCCCCCNC(=O)Nc1ccc(S(=O)(=O)Nc2ccc(CCNC[C@H](O)COc3ccc(O)cc3)cc2)cc1,inactive,
O=C(O)c1ccc(O)c(N2C(=O)Nc3ccccc3N2O)c1,"inconclusive [inhibitor, single point]",
COc1ccccc1-n1cnc2cc(NCc3ccco3)ccc21,"inconclusive [inhibitor, single point]",
CCCCC(=O)Nc1nc(C)c(-c2csc(Nc3cc(Cl)ccc3OC)n2)s1,"inconclusive [inhibitor, full curve]",
O=C(CSc1ccc2c(c1)OCCO2)NCc1ccccc1,inactive,
Cc1ccc(NS(=O)(=O)c2ccc(N/N=C/c3ccccc3OCC(=O)O)c([N+](=O)[O-])c2)c(C)c1,"inconclusive [inhibitor, partial curve]",
COc1ccc2nc(NC(=O)c3ccc4ncsc4c3)sc2c1,"inconclusive [activator, single point]",
NC(=O)C1=C[C@H](c2ccc(C(F)(F)F)cc2)C[C@H](OCCCCO)O1,inactive,
N[C@H](Cc1c[nH]c2ccccc12)C(=O)O,"inconclusive [inhibitor, single point]",
COCCCNc1nc2ccccc2nc1NS(=O)(=O)c1ccc(C)c(C)c1,inactive,
COc1ccc(Nc2nc3ccccc3nc2NS(=O)(=O)c2ccc(NC(C)=O)cc2)cc1,inactive,
O=C1c2ccccc2CN1CCSC(=S)N1CCOCC1,inactive,
CC1N(C)c2cc(NC(=O)c3ccco3)c(P(=O)(Nc3ccc([N+](=O)[O-])cc3)N3CCOCC3)cc2C1(C)C (stereo not given),"inconclusive [inhibitor, single point]",
COC(=O)c1ccccc1N(Cc1ccccc1)S(C)(=O)=O,inactive,
O=C1OCCN1C(=O)[C@H]1[C@H](c2ccc(Cl)cc2)C(c2ccc(F)cc2)=NN1c1ccccc1,"inconclusive [activator, single point]",
Cc1ccc2c(c1)-c1c(ssc1=S)C(C)(C)N2C(=O)CSC1=NCCS1,"inconclusive [inhibitor, full curve]",

# Source: PubChem BioAssay AID1477 (National Center for Advancing Translational Sciences (NCATS), 2009)
